Reference: the supplement of paper PMC11417369
± gives the standard deviation of the averaged measurements. The list shows a part of the results.

test system: PfAP2-G AP2 domain (GST-tagged); test: gcPBM binding intensity (ln(normalized median fluorescence intensity)); higher = stronger DNA binding
Method in brief: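 After 1 h on an Agilent 4 × 180k array of primer-extended double-stranded 36-bp intergenic genomic probes and negative controls, bound GST-tagged P. falciparum DNA-binding domains were detected with Alexa488 anti-GST antibody and scanned at 488 nm. The domains had been expressed in E. coli, and binding took place in 1× PBS with 1% milk, 0.2 mg/ml BSA, 0.5% salmon testes DNA and 0.03% Triton X-100. Binding intensity is the highest Masliner-normalised natural-log median intensity across replicate spots of either probe orientation.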

Row | Sequence | gcPBM binding intensity (ln)
1 | TTAAATGTTCTATATACATGCAATGATATGTTTCTG [TGCATGCA_site317] | 9.8 ± 0.071
2 | TCAAAGTAGGCTTATATGCACACTTTGAAATATTAT [CACACA_site1920] | 9.765 ± 0.021
3 | AAAAAAAAAAAAACTTGTACATGTGATATTATCTAT [XGTACX_site6169] | 10.8 ± 0.38
4 | ATTTAATACATACATTCACACACACTAATTGTATAT [CACACA_site9361] | 10.11 ± 0.028
5 | ACAAAAAAAAACGTGGTGCATTAATAATATTGTATA [GTGCAC_site9469] | 10.13 ± 0.092
6 | TTTAAAATAAATATTACACACAAAATATTAAAAAGC [CACACA_site2129] | 10 ± 0.042
7 | ATATATACATATGGGTGTACATATGCACATATATAT [XGTACX_site8437] | 11.3 ± 0.71
8 | TAGTTAATATGAAAAAGTACACGTTTCAGTGAAAGT [XGTACX_site7402] | 11.7 ± 1
9 | AAAGAATTCATTATTTGTACTTAAATAAATAAATAA [XGTACX_site5932] | 11 ± 0.75
10 | AGAAAGAAAGAATACACACACACATATATATATATC [CACACA_site3744] | 9.895 ± 0.021
11 | AGCACACGCAGACACACACACACACGCACACGCACA [CACACA_site6306] | 10.4 ± 0.18
12 | AAAGGATATGCTTCATATATATATTGTTATATATGT [CACACA_negctrl_site1672] | 9.65 ± 0.15
13 | TCATTATATACAATATGTACATATATGTAATAAACA [XGTACX_site4611] | 11.2 ± 0.73
14 | TATTTATATAGGTATACACACATACAAATATGTAAA [CACACA_site7705] | 10 ± 0.28
15 | AATACCTATAATACAACACACAAGTAATATAAACCT [CACACA_site7661] | 10 ± 0.028
16 | ATAACACAAAAAGGGGGTACAATAAAAAAAAAAAAA [XGTACX_site1652] | 11.5 ± 0.98
17 | ATAAGAAGGAACATAAATATATCATAAAAAAAAAAA [GTGCAC_negctrl_site169] | 9.74 ± 0.28
18 | TAAAATTTTTTATTCACACAAATATAGTTATATATA [CACACA_site5348] | 9.81 ± 0.16
19 | ATTTTTCAAACTTTAGTGCAATGAAAGAAAGAAAAA | 10 ± 0.35
20 | GGAGGTTGTTATAAAAGTACAAAAAGTTGCAATTTT [XGTACX_site7351] | 11 ± 0.59
21 | GTTTTCCTTCCCTTTCCCCCTCAAAAAAAGGGAACA [TGCATGCA_negctrl_site436] | 11.1 ± 0.85
22 | AAGGAATAAAGAAGTTGTACATAATTTGTATCATCC [XGTACX_site3891] | 11.2 ± 0.65

Row | Sequence | gcPBM binding intensity (ln)
23 | AAATTAATATAAATATGTACATAAATAATAAAATAT [XGTACX_site6131] | 11.3 ± 0.65
24 | TTTCAGCCAAACGATAAACTACGACACTTGAACGAA [CACACA_negctrl_site1747] | 10.1 ± 0.18
25 | TATATTAATAGACACACACACATATTTATATTTATA [CACACA_site6859] | 10.09 ± 0.071
26 | TACTGTGATAGCACCACACACGCAAAAGTGAGTATA [CACACA_site1109] | 10.3 ± 0.29
27 | TATATTTAGTAAAAAGGTACCATTCTTATTTATATT [CACACA_negctrl_site1165] | 10.7 ± 0.29
28 | GTAATTATTATTAATAGTACACACTATGGCATTTCA [XGTACX_site5192] | 11.2 ± 0.77
29 | ATATATTTTTTTTCTTCACACACATGAATTATATAT [CACACA_site9053] | 10.2 ± 0.16
30 | ATATATATATATATATGTACATATTATATATGAACG [XGTACX_site1585] | 11.3 ± 0.74
31 | AATAATAGAAAAAGGTGTACTTATAAACATATACAC [XGTACX_site6921] | 11.5 ± 0.83
32 | ATTTTTTTTTTTATGTGTACATATATTTTTTTAATT [XGTACX_site7921] | 11.6 ± 0.97
33 | AAGAAAAAATAAACATGTACATAAATATATATATAT [XGTACX_site304] | 11.3 ± 0.8
34 | ATTTAATTTATAAAAACACACACAGGTAAAAAGGTG [CACACA_site8306] | 10.5 ± 0.21
35 | CAAATACATGTGTAAAGTACATATTAATAAGTCTTT [XGTACX_site6342] | 11 ± 0.67
36 | GAAAATTCTTAAGGCACACACATATATAATATATAC [CACACA_site569] | 10.3 ± 0.3
37 | AATTTAACCCATTTTATAATTATTACCACTATATAT [TGCATGCA_negctrl_site452] | 10.3 ± 0.16
38 | TAAGGCCCTTTTCATCGTACAGTAAAATATAAATAA [XGTACX_site1278] | 11.1 ± 0.81
39 | CATACTGTGATAGCACCACACACGCAAAAGAGGGTA [CACACA_site8285] | 10.2 ± 0.26
40 | AAAAAAAAAAAAAAAAAAAAAAAAAAATATATATAT [CACACA_negctrl_site271] | 11.2 ± 0.72
41 | AAGAAAAAAAAAAAAAAAAAAAAAAAAAAGGAAAAA [GTGCAC_negctrl_site174] | 9.48 ± 0.085
42 | TGCTACTTATAAATAGAACACACATAAGTGTATTTG [CACACA_site9253] | 9.9 ± 0.014
43 | AATAATAAAAAATATACACACATATATAAATAAATA [CACACA_site6164] | 9.7 ± 0.13
44 | ATAAAGCCATACAATACACACATTTGACATGTCCGT [CACACA_site7523] | 10.23 ± 0.021
